In PubChem BioAssay (NCATS):
The inconclusive results got no clear call from the source; some entries with a clear call stand among them for comparison. Where a call stands in place of a potency, no number is given. Potencies of inconclusive entries are doubtful fits and often do not repeat. Calls of active or inactive are those of the source. Calls follow the shape of the dose curve; as a rule, active = well fitted activation curve with a large enough effect in the main read-out, with a control signal flat (not every such curve was filed as active); inconclusive = small, poorly fitted or top-dose-only effect, or effect the other way, or a change in a side signal; inactive = flat fitted curve, though single readings scatter.

Target: 3',5'-cyclic-AMP phosphodiesterase 4B (Homo sapiens) (UniProt Q07343)
Assay: qHTS Assay for Inhibitors of PDE-IV (AID 607)
Settings: HEK293 ACTOne CNG channel cells, membrane potential fluorescence; series mostly up to 22.9 µM
Outline: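 The readout is membrane depolarisation from a cAMP-sensing CNG channel, detected with a potential dye at ex 535/em 590. Cells were HEK293-derived (endogenous PDE-IV) at 1000 cells/well, titrated up to 22.9 uM final.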
Potency is read from the fitted curve at half-maximal effect; tags tell the direction and shape of the fitted curve.

UniProt Q07343, sequence (Q07343 whole entry, looked up): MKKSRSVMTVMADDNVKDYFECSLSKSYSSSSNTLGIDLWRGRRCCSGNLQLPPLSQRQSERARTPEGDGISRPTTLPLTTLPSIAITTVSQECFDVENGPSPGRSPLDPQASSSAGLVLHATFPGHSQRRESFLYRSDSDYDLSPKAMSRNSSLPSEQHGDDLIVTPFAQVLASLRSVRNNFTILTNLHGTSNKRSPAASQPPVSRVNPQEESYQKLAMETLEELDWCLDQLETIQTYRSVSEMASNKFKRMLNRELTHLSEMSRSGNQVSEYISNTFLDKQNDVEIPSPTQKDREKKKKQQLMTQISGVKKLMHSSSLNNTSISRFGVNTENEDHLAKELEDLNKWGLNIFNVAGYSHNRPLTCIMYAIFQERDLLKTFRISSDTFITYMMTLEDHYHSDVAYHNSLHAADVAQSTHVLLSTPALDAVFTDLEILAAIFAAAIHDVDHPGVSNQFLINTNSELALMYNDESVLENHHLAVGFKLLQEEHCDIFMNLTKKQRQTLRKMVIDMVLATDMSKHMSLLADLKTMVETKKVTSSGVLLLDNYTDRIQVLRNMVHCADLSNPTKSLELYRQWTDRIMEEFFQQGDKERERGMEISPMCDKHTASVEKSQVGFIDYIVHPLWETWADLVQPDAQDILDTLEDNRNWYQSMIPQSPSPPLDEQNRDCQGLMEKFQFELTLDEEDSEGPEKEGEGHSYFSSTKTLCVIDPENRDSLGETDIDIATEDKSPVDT

Row | SMILES | Potency
1 | NC1(C(=O)OCc2ccccc2)CCCC1 | inactive
2 | CCCC[C@@H]1C[C@H]1C(NC(=O)c1ccco1)c1ccc(C(=O)OC)cc1 (stereo not given in full) | inconclusive: 10 µM [rising, partial curve]
3 | C[N+]1(CCN=C=NC2CCCCC2)CCOCC1 | inactive
4 | CC1(C)S[C@@H]2[C@@H](NC(=O)[C@@H](N)c3ccccc3)C(=O)N2[C@H]1C(=O)O | inactive
5 | N[C@@H](Cc1[nH]nc2ccccc12)C(=O)O | inactive
6 | CC(=O)Nc1cc(CN2CCCCC2)c(O)c2ncccc12 | inactive
7 | Cn1c(=O)c2[nH]c(CCCCc3nc4c([nH]3)c(=O)n(C)c(=S)n4C)nc2n(C)c1=S | inactive
8 | O=C(/C=C\C=C/c1ccc2c(c1)OCO2)N1CCCCC1 | inconclusive: 9.51 µM [rising, partial curve]
9 | COc1ncc2nc(-c3ccc(F)cc3)c(=O)n(C[C@H]3CCCO3)c2n1 | inactive
10 | COC(=O)[C@H]1C[C@@H]1[C@H](NS(=O)(=O)c1ccc2ccccc2c1)c1ccccc1 | inconclusive: 10 µM [activator, partial curve]
11 | c1cc2c(cc1C(N1CCNCC1)N1CCNCC1)OCO2 | inactive
12 | Cc1noc(C)c1C(=O)N1CCC[C@@]2(CCN(C(c3ccccc3)c3ccccc3)C2)C1 | inactive
13 | O=C1c2ccccc2C(=O)N1C[C@]1(C(=O)O)NCCS1(=O)=O | inactive
14 | COC(=O)c1ccc(C#CC(NP(=O)(c2ccccc2)c2ccccc2)c2ccccc2)cc1 (stereo not given) | inconclusive: 10 µM [activator, partial curve]
15 | COC(=O)[C@@]1(Cc2ccc(F)cc2)[C@H]2c3cc(C(=O)N(C)C)n(Cc4c(CO)[nH]cc(C)c4=O)c3C[C@H]2CN1C(=O)c1ccccc1 | inactive
